For orientation: AC50 means the concentration giving half of the maximal activity seen.

Some of the results follow. These are further read-outs of the screen, such as a control signal, another cell line or another target. No call is given for them. Potencies come from curve fits of mixed quality, noted in brackets.
Tags tell the direction and shape of the fitted curve.

This assay is described as follows: qHTS drug screen for cell cycle checkpoint inhibitors in PARPi-resistant BRCA-mutant ovarian cancer cell lines. (AID 1963452). Particulars: PEO1/OlaR viability, CellTiter-Glo luminescence, 96 h; measured here: PEO4 viability. In outline:
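PEO1, PEO4 and PEO1/OlaR ovarian cancer cells, 600 per well, exposed 96 h at 37C to a dilution series. Viability read by CellTiter-Glo luminescence, normalized to DMSO and empty wells; activity summarized as Z-AUC.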
(Quantitative high-throughput screening tests each substance at several concentrations.)
Regarding `CCCCc1nc2cc(/C=C/C(=O)NO)ccc2n1CCN(CC)CC`, the AC50 is 1.95 µM [falling, full curve].
As for `CN(C)CCCNC(=O)c1ccc(-c2cc(O)c3ncccc3c2)cc1`, the figure is 17.4 µM [falling, partial curve, poor fit]; as for `CC[C@H](C)C(=O)O[C@H]1CCC=C2C=C[C@H](C)[C@H](CC[C@@H]3C[C@@H](O)CC(=O)O3)[C@H]21`, 17.4 µM [falling, single point].
Consider `Cc1nc([C@](C)(O)CO)sc1-c1cnc(N)c(O[C@H](C)c2cc(F)ccc2-n2nccn2)c1`, for which the AC50 is 1.38 µM [falling, partial curve, poor fit].

The values above are taken from PubChem BioAssay (NCATS).
